Out of some 280,000 compounds screened, about 1,100 (0.39%) were called active. Inconclusive results, whose numbers are uncertain, are shown with a selection of clear calls. Calls come from the whole dose curve; as a rule, active = well fitted inhibition curve with a large enough effect; inconclusive = small, poorly fitted or top-dose-only effect, or effect the other way; inactive = flat fitted curve, though single readings scatter. No potency is given beside an inconclusive call; the fits are too rough.
The compounds below were run against Microtubule-associated protein tau (Homo sapiens) (UniProt P10636) (assay: qHTS for Inhibitors of Tau Fibril Formation, Fluorescence Polarization). Settings: K18 P301L tau heparin fibrillization, Alexa594 FP, 6 h; series mostly up to 57.7 µM; activity, negative = inhibition: at the top concentration.
Summary of the method: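 Compound effects on tau fibrillization are measured by Alexa 594 fluorescence polarization (ex 555, em 632 nm). K18 P301L tau is used at 15 uM with 0.24 uM labeled tracer, and 20 uM heparin induces aggregation over 6 hr at 37 C.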
% is set by controls: 0 for no effect and ±100 for the full control effect; potency is the fitted concentration of half-maximal effect; tags give direction and shape of the fitted curve.
Note: nearly all actives have a fitted effect of over 55% in size.

Chain of UniProt P10636 (P10636 whole entry, looked up): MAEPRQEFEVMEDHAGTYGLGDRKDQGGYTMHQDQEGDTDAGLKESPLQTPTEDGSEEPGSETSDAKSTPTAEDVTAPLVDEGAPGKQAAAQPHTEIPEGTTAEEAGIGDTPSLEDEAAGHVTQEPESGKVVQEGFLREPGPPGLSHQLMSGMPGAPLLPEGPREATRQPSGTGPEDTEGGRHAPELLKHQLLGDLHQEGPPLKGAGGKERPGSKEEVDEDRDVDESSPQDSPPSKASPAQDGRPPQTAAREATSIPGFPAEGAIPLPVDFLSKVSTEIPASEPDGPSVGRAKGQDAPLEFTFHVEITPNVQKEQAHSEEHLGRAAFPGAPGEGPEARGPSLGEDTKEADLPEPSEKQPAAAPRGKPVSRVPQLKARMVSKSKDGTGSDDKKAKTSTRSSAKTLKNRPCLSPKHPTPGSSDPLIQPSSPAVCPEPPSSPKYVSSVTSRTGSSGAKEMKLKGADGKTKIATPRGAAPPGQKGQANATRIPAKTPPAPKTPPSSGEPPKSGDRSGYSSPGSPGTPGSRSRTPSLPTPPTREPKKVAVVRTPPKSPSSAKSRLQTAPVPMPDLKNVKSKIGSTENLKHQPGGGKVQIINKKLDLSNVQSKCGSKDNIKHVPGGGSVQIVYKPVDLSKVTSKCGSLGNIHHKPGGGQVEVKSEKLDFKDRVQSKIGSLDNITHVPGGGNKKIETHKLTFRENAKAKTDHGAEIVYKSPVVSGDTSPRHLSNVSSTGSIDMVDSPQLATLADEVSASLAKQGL

Compound	Potency	activity, negative = inhibition
CCN(CC)S(=O)(=O)c1ccc(NC(=O)COc2nc3ccccc3nc2N2CCOCC2)cc1	inconclusive [inhibitor, single point]	–
COc1ccccc1CNC(=O)CCn1c(=O)c2ccccc2n(CC(=O)Nc2cccc(Cl)c2)c1=O	inconclusive [inhibitor, single point]	–
COc1c(C)cc(S(=O)(=O)NCCc2c(C)[nH]c3ccccc23)c(C)c1C	inconclusive [activator, partial curve]	–
CC(C)NC(=O)CCn1c(=S)oc2ccccc21	inconclusive [inhibitor, partial curve, poor fit]	–
CCOC(=O)c1cc(-c2ccccc2)n(-c2cccc(C(=O)Nc3ccc(F)c(F)c3)c2)c1C	inconclusive [inhibitor, single point]	–
S=c1nc[nH]c2c1sc1nc(-c3ccccc3)c3c(c12)CCCC3	inconclusive [inhibitor, partial curve]	–
CCC1=NNc2cccc3c(OC)ccc1c23	inconclusive [inhibitor, partial curve]	–
O=S(=O)(Cc1cc(Sc2ccccc2)nc(-c2ccccc2)n1)c1ccccc1	inconclusive [inhibitor, partial curve, poor fit]	–
Cc1cc(N=Cc2c(O)ccc3ccccc23)no1	inconclusive [inhibitor, single point]	–
Fc1ccc(-c2nc(Nc3ccc(F)c(Cl)c3)nc3c2COc2ccccc2-3)cc1	inconclusive [inhibitor, partial curve]	–
O=C(CSc1ccccn1)Nc1nc2c(ccc3ccccc32)s1	inconclusive [inhibitor, partial curve]	–
C/C(=N\Nc1cc(C)nc(NCc2ccccc2)n1)c1cccc([N+](=O)[O-])c1	inconclusive [inhibitor, partial curve]	–
CC1=C(CC(=O)c2ccc(Cl)cc2)C(=O)c2ccccc2C1=O	inconclusive [inhibitor, partial curve, poor fit]	–
C=C(C)C1CC=C(CN2CC(C)OC(C)C2)CC1 (stereo not drawn)	–	inactive: 3.46%
Cc1ccc(C2C(C#N)=C(N)Oc3c2sc2ccccc32)o1 (stereo not drawn)	inconclusive [inhibitor, partial curve]	–
CCn1c(=O)cc(SCC(=O)Nc2ccc(Cl)cc2)c2ccccc21	inconclusive [inhibitor, partial curve]	–
O=C(Nc1cccc(Cl)c1)Nc1ccccc1C(=O)NCc1ccco1	inconclusive [inhibitor, single point]	–
COc1ccc(C(=O)n2ccc(C)n2)cc1Br	inconclusive [inhibitor, full curve, poor fit]	–
O=C(NCc1cccc(Cl)c1)c1cc2c(s1)-c1ccccc1OC2	inconclusive [inhibitor, partial curve]	–
N#CCc1ccc(NC(=O)/C=C/c2ccc([N+](=O)[O-])o2)cc1	inconclusive [inhibitor, full curve, poor fit]	–
O=[N+]([O-])c1cc2c(cc1/C=N\NS(=O)(=O)c1ccccc1)OCO2	inconclusive [inhibitor, partial curve]	–
COc1ccc(NS(=O)(=O)c2ccc3oc4ccccc4c3c2)cn1	–	inactive: -4.58%
N#Cc1c(NC(=O)CSc2n[nH]c(N)n2)oc(-c2ccccc2)c1-c1ccccc1	inconclusive [inhibitor, single point]	–

Compound	Potency	activity, negative = inhibition
O=C(CCc1c[nH]c2ccccc12)NCC(=O)Nc1ccc(F)c(F)c1F	–	inactive: 9.55%
CC(C)c1ccc(NC(=O)c2cc3c(s2)-c2ccccc2SC3)cc1	inconclusive [inhibitor, partial curve]	–
Cc1cc(-c2nn(-c3ccccc3)cc2/C=C2\SC(N)=NC2=O)ccc1OC(C)C	active: 3.16 µM	–
Cc1ccc(CCNC(=O)c2ccc3c(c2)N(Cc2cccc(C)c2)C(=O)c2ccccc2S3(=O)=O)cc1	inconclusive [inhibitor, partial curve]	–
O=C1OCC2=C1C(c1ccccc1)CC(=O)N2c1cccc(F)c1 (stereo not drawn)	inconclusive [inhibitor, single point]	–
Cn1cnnc1SCc1ccc(C(=O)N=Nc2c(O)n(Cc3ccc(Cl)cc3)c3ccccc23)cc1	–	inactive: -0.349%
Cc1ccc2c(c1)C(c1ccccc1)N(C(=O)COc1ccc(Cl)cc1Cl)CC(=O)N2 (stereo not drawn)	–	inactive: -6.18%
Cc1c(Cl)ccc2sc(N3CCN(C(=O)CCS(=O)(=O)c4ccc(F)cc4)CC3)nc12	–	inactive: -9.05%
COc1cccc(C(=O)Nc2nc(-c3nnn(-c4ccccc4C(F)(F)F)c3C)ns2)c1	inconclusive [inhibitor, partial curve, poor fit]	–
CC(C)(C)c1cc(CSC(=S)NC2CCS(=O)(=O)C2)c(Br)c(C(C)(C)C)c1 (stereo not drawn)	inconclusive [inhibitor, partial curve]	–
O=C(Nc1nc(-c2ccc(Oc3ccccc3)cc2)cs1)C1=COCCO1	inconclusive [inhibitor, partial curve]	–
COc1ccc2oc(=Nc3ccccc3)c(-c3nc4ccccc4[nH]3)cc2c1	inconclusive [inhibitor, full curve, poor fit]	–
COc1ccc(C)c2sc(NC(=O)c3ccc(S(=O)(=O)N4CCOCC4)cc3)nc12	inconclusive [inhibitor, partial curve]	–
c1nc(N2CCCCC2)c2[nH]cnc2n1	–	inactive: 4.28%
N#C/C(=C/c1ccc(Sc2nc3ccccc3[nH]2)o1)c1ccccc1F	inconclusive [inhibitor, partial curve]	–
Cc1cc(S(=O)(=O)Nc2ccc3ccccc3c2)c(C)s1	inconclusive [inhibitor, single point]	–
COc1ccc(-c2csc(-c3cccnc3)n2)cc1C	–	inactive: 4.9%
CC(=O)N1CCCc2cc(S(=O)(=O)N(C)CC(=O)Nc3ccc(C(C)C)cc3)ccc21	–	inactive: 1.82%
COc1ccc(CNC(=O)c2cc3c(=O)n(Cc4ccco4)ccc3nc2C)c(OC)c1	–	inactive: 0.186%
Cn1c(SCc2ccccc2)nnc1C1CCCNC1 (stereo not drawn)	–	inactive: -2.42%
Cc1c(Nc2ncnc3nc[nH]c23)c(=O)n(-c2ccccc2)n1C	inconclusive [activator, single point]	–
COc1cccc(CNC(=O)c2sc3nc[nH]c(=O)c3c2C)c1	–	inactive: 6.64%
Cc1nc(-c2ccc(S(=O)(=O)Oc3ccccc3Cl)s2)cs1	inconclusive [inhibitor, partial curve]	–

Compound	Potency	activity, negative = inhibition
CCc1ccc(S(=O)(=O)NCCc2cn3ccsc3n2)cc1	inconclusive [inhibitor, partial curve]	–
CC(N=Cc1cccc(O)c1O)c1ccccc1 (stereo not drawn)	inconclusive [inhibitor, partial curve]	–
Cc1ccc(-c2csc(N/N=C/C=C/c3ccccc3)n2)cc1	–	inactive: 14.6%
Cn1c(CN2CCOCC2)c(C#N)c2ccccc21	–	inactive: -0.807%
COc1ccc(Cc2nc(-c3ccc(Br)o3)no2)cc1OC	inconclusive [activator, full curve]	–
CN(/N=C/c1ccc(O)cc1O)c1nc(-c2ccccc2)cc(-c2ccccc2)n1	inconclusive [activator, full curve]	–
COc1cccc(NC(=O)CSc2cc(C)c3ccccc3n2)c1	–	inactive: -9.51%
Cc1ccc(NC(=O)c2nc[nH]c2C(=O)N[C@@H](C)c2ccccc2)cc1	inconclusive [inhibitor, single point]	–
CCCOc1ccc(NC(=O)CC2C(=O)N(c3cccc(OC)c3)C(=O)N2CCc2ccncc2)cc1 (stereo not drawn)	–	inactive: 3.4%
CCN1C(=O)C(O)(CC(=O)c2cccc(-n3cccc3)c2)c2ccccc21 (stereo not drawn)	inconclusive [inhibitor, partial curve]	–
CCOc1ccccc1OCCCOc1ccc(C)cc1Cl	inconclusive [inhibitor, single point]	–
COC(=O)C1=C(C(=O)OC)SC(=C2C(=S)C(C)(C)N(C(=O)C(C)C)c3ccccc32)S1	inconclusive [inhibitor, full curve]	–
CSc1ccccc1NC(=O)CN(C)CC(=O)Nc1cc(C)ccc1C	inconclusive [inhibitor, single point]	–
O=C1CSC(=S)N1c1cccnc1	–	inactive: -6.69%
O=C(/C=C/c1ccco1)Nc1ccc(-c2nc3ccccc3[nH]2)cc1	inconclusive [inhibitor, single point]	–
CC(=O)NS(=O)(=O)c1cccnc1Nc1cccc(Cl)c1	–	inactive: 2.01%
Cc1nc(C(F)(F)F)ccc1C(=O)N1CCCCC1	–	inactive: 1.02%
O=C(CSc1nc2c([nH]c3ccccc32)c(=O)n1-c1ccccc1)Nc1cccc(C(F)(F)F)c1	inconclusive [inhibitor, single point]	–
Cc1ccc(C2(C)NC(=O)N(CC(=O)Nc3ccc(-c4nc5ccc(C)cc5s4)cc3)C2=O)cc1 (stereo not drawn)	inconclusive [inhibitor, partial curve]	–
O=C(O)c1cccc(N/N=C/c2ccc(-c3ccccc3)cc2)c1	–	inactive: -6.24%
NC(=O)CC(NC(=O)Cc1ccc(Br)cc1)c1ccc(NCCOc2ccccc2)c([N+](=O)[O-])c1 (stereo not drawn)	inconclusive [inhibitor, partial curve]	–
c1ccc2c(CNc3ccc(CNc4ncn[nH]4)cc3)cccc2c1	inconclusive [activator, single point]	–

— PubChem BioAssay AID1468 (National Center for Advancing Translational Sciences (NCATS), 2008)
